Data: the RNAGym collection of RNA variant scans (doi:10.7554/elife.90254)
The source gives no read counts; variants with many changes may rest on few reads.

B1: LINE1-full (parent)
chain: UACGUAGGUGGUUUUCCCCUGAUAGUGCUAAGGGGGCCUGGAAGUUUGGACUGGGCAGAGCUCAACACAGCGUGGCAAAGUGGCUGUGGCUAGACUGCCUCUCUGGAUUCCUCGUCACUCAGCAGGGCAUCUCUGAGAGAAAUGCC

Variants of: B1
Assay: self-cleavage, relative activity (ratio to wild type); higher = more cleavage; in vitro, sequencing; the parent is a self-cleaving ribozyme
UACGUAGGUGGGUUUCCCCUGGUAGUGCUAAGGGGGCCUGGAAGUUUGGACUGGGCAGAGCUCAACACAGCGUGGCAAAGUGGCCGUGGCUAGACUGCCUCUCUGGAUUCCUCGUCACUCAGCAGGGCAUCUCUGAGAGAAAUGCC showed a self-cleavage of 0.17.
UACGUAGGUGGGUUUCCCCUGUUAGUGCUAAGGGGGCCUGGAAGCUUGGACUGGGCAGAGCUCAACACAGCGUGGCAAAGUGGCUGUGGCUAGACUGCCUCUCUGGAUUCCUCGUCACUCAGCAGGGCAUCUCUGAGAGAAAUGCC gave a self-cleavage of 1.24.
UACGUAGGUGGGUUUCCCCUGAUAGUGCUAAGGGGGCCUGGAAGUUUGGACUGGGCAGAGCUCAACACAGCGUGGCAAGGUGGCUGUGGCUAGACUGCCUCUCUGGAUUCCUCGUCACUCAGCAGGGCAUCCCUGAGAGAAAUGCC gave a self-cleavage of 0.72.
Variant UACGUAGGUGGGUUUCCCCUGAUAGUGCUAAGGGGGCUUGGAAGUUUGGACUGGGCAGAGCUCAACACAGCGUGGCAAAGUGGCUGUGGCUAGACUGCCUCUCUGGAUUCCUCGUCACUCAGCAGGGCAUCCCUGAGAGAAAUGCC has a self-cleavage of 1.07.
Variant UACGUAGGUGGCUUUCCCCUGAUAGUGCUAAGGGGGCCUGGAAGUUUGGACUGGGCAGAGCUCAACACAGCGUGGCAAAGUGGCUGUGGCUAGACUGCCUCUCUGGAUUCCUCGUCACUCAGCAGGGCAUCUCAGAGAGGAAUGCC has a self-cleavage of 0.38.
Work on UACGUAGGUGGGUUUCCCCUGAUAAUGCUAAGGGGGCCUGGAAGUUUGGACUGGGCAGAGCUCAACACAGCGAGGCGAAGUGGCUGCGGCUAGACUGCCUCUCUGGAUUCCUCGUCACUCAGCAGGGCAUCUCUGAGAGAAAUGCU yielded a self-cleavage of 0.79.
With UACGUAGGUGGCUUUCCCCUGAUAGUGCUAAGGGGGCCUGGAAGUUUGGACUGGGCAGAGCUCAACACAGCGUGGCAAAGUGGCUGUGGCUAGACUGCCUCUCUGGAUUCCUCGUCACUCAGCAGGGCAUCCCUGAGAGAGAUGCC the self-cleavage was 2.93.
Work on UACGUAGGUGGGUUUCCCCUGGUAGUGCUAAGGGGGCCUGGAAGUUUGGACUGGGCAGAGCUCAACACAGUGUGGCAAAGUGGCUGUGGCUAGACUGCCCCUCUGGCUUCCUCGUCUCUCAGCAGGGCAUCUCUGGGAGAAAUGCC yielded a self-cleavage of 0.84.
UACGUAGGUGGGUUUCCCCUGGAAGUGCUAAGGGGGCCUGGAAGUUUGGACUGGGCAGAGCUCAACACAGCGUGGCAAAGUGGCUGUGGCUAGACUGCCUCUCUGGAUUCCUCGUCACUCAGCAGGGCAUCUCUGAGAGAAAUGCC showed a self-cleavage of 1.15.
For UACGUAGGUGGGUUUCCCCUGAUAGUGCUAAGGGGGCCUGGAAGUUUGGACUGGGCAGAGCUCAACACAGCGUGGCAGAGUGGCUGUGGCUAGGCUGCCUCUCUGGAUUCCUCGUCACUCAGCAGGGCAUCUCUGAGAGAAAUGCC, the self-cleavage was 0.
UACGUAGGUGGGUUUCCCCUGAUAGUGCUAAGGGGGCCUGGAAGUUUGGCCUGGGCAGAGCUCUACACAGCGUGGCAAAGUGGCUGUGGCUAGACUGCUUCUCUGGAUUCCUCGUCACACGGCAGGGCAUCUCUGAGAGAAAUGCC showed a self-cleavage of 0.32.
Variant UACGUAGGUGGGUUUCCCCUGAUAGUGCUAAGGGGGCCUGGAAGUUUGGACUGGGCAGAGCUCAACACAGCGUGGCGAAGUGGCUGUGGCUAGACUGCCUCUCUGGGUUACUCGUCACUCAGCAGGGCAUCACUGAGAGAAAUGCC has a self-cleavage of 0.29.
UACGUAGGUGGGUUUCCCCUGAUAGUGCUAAGGGGGCCUGGAAGUUUGGACUGGGCAGAGCUCAACCCAGCGUGGCAAAGUGGCUGUGGCUAGACUGCCUCUCUGGAUUCCUCGUCACUCAGCAGGGCAUCUCUGAGAGGGAUGCC showed a self-cleavage of 0.27.
UACGUAGGUGGGUUUCCCCUGAUAGUGCUAACGGGGCCUGGAAGUUUGGACUGGGCAGAGCUCAACACAGCGUGGCAAAGUGGCUGUGGCUAGGCUGCCUCUCUGGAUUCCUCGUCACUCAGCAGGGCAUCUCUGAGAGAAAUGCC gave a self-cleavage of 0.
Variant UACGUAGGUGGGUUUCCCCUGAUAGUGCUAAUGGGCCCUGGAAGUUUGGACUGGGCAGGGCUCAACACAGCGCGGCAAAGUGGCUGUGGCUAGACUGCCUCUCUGGAUUCCUCGUCACUCAGCAGGGCAUCUCUGAGAGAAAUGCC has a self-cleavage of 0.71.
UACGUAGGUGGGUUUCCCCUGAUAGUUCUAAGGGGGCCUGGAAGUCUGGACUGGGCAGAGCUCAACACAGCGUGGCAAAGUGGCUGUGGCUAGACUGCCUCUCUGGAUUCCUCGUCACUCAGCAGGGCAUCUCUGAGAGAAAUGCC showed a self-cleavage of 1.15.
Work on UACGUAGGUGGGUUUCCCCUGAUAGUGCUAAGGGGGCCUGGAAGUUUGGACUGGGCAGAGCUCAACACAGCGUGGCAAGGUGGCUGUGGCUAGACUGCCUCUCUGGAUUGCUCGUCACUCAGCAGGGCAUCUCUGAGAGAAAUGCC yielded a self-cleavage of 2.7.
For UACGUAGGUGGGUUUCCCCUGAUAGUGCUGGGGGGGCCUGGAAGUUUGGACUGGGCAGAGCUCAACACAGCGUGGCAAAGUGGCUGUGGCUAGACUGCCUCCCUGGAUUCCUCGUCACUCAGCAGGGCAUCUCUGAGAGAAAUGCC, the self-cleavage was 2.3.
Variant UACGUAGGUGGGUUUCCCCUGAUAGUGCUAAGGGGGCCUGGAGGUUUGGACUGGGCAGAGCUCAACACAGCGUGGCAAAGUGGCUGUGGCUAGACUGCCUCUCUGGAUUCCCCGUCACUCAGCAGGGCAUCUCUGAGAGAAAUGCC has a self-cleavage of 1.75.
For UACGUAGGUGGGUUUCCCCUGAUAGUGCUAAGGGGGCCUGGAGGUUUGGACUGGGCAGAGCUCAACACAGCGUGGCAAAGUGGCUGUGGCUAGACUGCCUCUCUGGAUUCCUCGUCACUCAGCAGGGCAUCUCUGAGAUAAAUGCC, the self-cleavage was 1.7.
Work on UACGUAGGUGGGUUUCCCCUGAUAGUGCUAAGGGGGCCUGGAAGUUUGGACUGGGCAGAGCUCAACACAGCGUGGCAAAGUGGCUGUGGCUAGACUGCCUCUCUGGAUUCCUCGUCAUUCAGCAGGGCAUCCCUGAGAGAAAUGCC yielded a self-cleavage of 1.04.
For UACGUAGGUGGGUUUCCCCUGAUAGUGCUAAGGGGGCCUGGAAGUUUGGACUGGGCAGAGCUCAACACGGCGUGGCAAAGUGGCUGUGGCUAGACUGCCUCUCUGGAUUCCUCGUCACUCAGCAGGGCAUCUCUGUGAGAAAUGCC, the self-cleavage was 1.31.
Work on UACGUAGGUGGGUUUCCCCUGAUAGUGCUAAGGGGGCCUGGAAGUUUGGACUGGGCAGGGCUCAACACAGCGUGGCAAAGUGGCUGUGGCUAGACUGCCUCUCUGGAUUCCUCGUCACUCAGCAGGGUAUCUCUGAGAGAAAUGCC yielded a self-cleavage of 0.34.
With UACGUAGGUGGCUUUCCCCUGAUAGUGCUAAGGGGGCCUGGAAGUUUGGACUGGGCAGAGCUCAACACAGCGUGGCAAAGUGGCUGUGGCUAGACUGCCUCUCUGGAUUCCUCGACACUCAGCAGGGCAUCUCAGAGUGAAAUGCC the self-cleavage was 1.55.
UACGUAGGUGGGUUUCCCCUGAUAGUACUAAGGGGGCCUGGAAGUUUGGACAGGGCAGAGCUCAACACAGCGUGGCAAAGUGGCUGUGGCUAGACCGCCUCUCUGGAUUCCUCGUCACUCAGCAGGGCAUCUCUGAGAGAAAUGCC showed a self-cleavage of 0.
For UACGUAGGUGGGUUUCCCCUGAUAGUGCUGAGGGGGCCUGGAAGUUUGGACUGGGCAGAGCUCAACACAGCGUGGCAAAGUGGCUGUGGCCAGACUGCCUCUCUGGAUUCCUCGUCACUCAGCAGGGCAUCCCUGAGAGAAAUGCC, the self-cleavage was 0.
In the case of UACGUAGGUGGGUUUCCCCUGAUAGUGCUAAGGGGGCCUGGAAGUUUGGACUGGGCGGAGCUCAACACAGCGUGGCAAAGUGGCUGUGGCUAGACUGCCUCUCUGGAUUCCUCGUCACUCAGCAGGGCAUCUCUGAGAGAGAUGCC, the self-cleavage is reported as 0.82.
Work on UACGUAGGUGGGUUUCCCCUGAUAGUGCUAAGGGGGCCUGGAAGUUUGGACUGGGCAGAGCUCAACACAGCGUGGCAAAGUGGCUGUGGCUAGACUGUCUCUCUGGAUUCCUUGUCACUCAGCAGGGCAUCUCUGAGAGAAAUGCC yielded a self-cleavage of 0.1.
For UACGUAGGUGGGUUUCCCCUGAUAGUGCUGAGGGGGCCUGGAAGUUUGGACUGGGCAGAGCUCAACACAGCGUGGCAAAGUGGCCGUGGCUAUACUGCCUCUCUGGAUUCCUCGCCACUCAGCAGGGCGUCUCUGAGGGAAAUGCC, the self-cleavage was 0.
For UACGUAGGUGGGUUUCCCCUGAUAGUGCUAAGGGGGCCUGGAAGUUUGGACUGGGUAGGGCUCAACACAGCGCGGCAAAGUGGCUGUGGCUAGACUGCCUCUCUGGAUUCCUCGUCACUCAGCAGGGCAUCUCUGAGAGAAAUGCC, the self-cleavage was 0.27.
Variant UACGUAGGUGGGUUUCCCCUGAUAGUGGUAAGGGGGCCUGGAAGUUUGGACUGGGCAGAGCUCAACACAGCGUGGCAAAGUGGCCGUGGCUAGACUGCCUCUCUGGAUUCCUCGUCACUCGGCAGGGCAUCUCUGAGAGAAAUGCC has a self-cleavage of 0.
In the case of UACGUAGGUGGGUUUCCCCUGAUAGUGCUAAGGGGGCCUGGAAGUUUGGACUGGGCAGAGCUCAACACAGCGUGGCAAAGUGGCUGUGGCUAGACUGCCUCUUUGGAUUCCUCGUCACUCUGCAGGGCAUCUCUGAGAGAAAUGCC, the self-cleavage is reported as 1.68.
UACGUAGGUGGGUUUCCCCUGAUAGUGCUAAGGGGGCCUGGAAGUUUGGACUGGGCAGAGCUCAACACAGCGUGGCGAAGUGGCUGUGGCUAGACUGCCUCUCUGGAUUCCUCGUCACUCAGCUGGGCAUCUCUGAGAGAAAUGCC showed a self-cleavage of 1.3.
Work on UACGUAGGUGGGUUUCCCCUGGUAGUGCUAAGGGGGCCUGGAAGUUUGGACUGGGCAGAGCUCAACACAGCGUGGCAAAGUGGCUGUGGUUAGACUGCCUAUCUGGAUUCCUCGUCACUCAGCAGGGCAUCUCUGAGAGAAAUGCC yielded a self-cleavage of 0.11.
With UACGUAGGUGGGUUUCCCCUUAUAGUGCUAAGGGGGCCUGGAAGUUUGGACUGGGCAGAGCUCAACUCAGCGUGGUAAAGUGGCAGUGGCUAGACUGCCUCUCUGGAUUCCUCGUCACUCAGCAGGGCAUCUCUGAGAGAAAUGCC the self-cleavage was 0.07.
Work on UACGUAGGUGGGUUUCCCCUGAUAGUGCUAAGGGGGCCUGGAAGUUUGGACUGGGCAGAGCUCAACGCAGCGUGGCAAAGUGGCUGUGGCUAGACUGCCUCUCUGGAUUCCUCGUCACUCAGCAGGGCAUCUCAGAGAGAAAUGCC yielded a self-cleavage of 0.54.
Variant UACGUAGGUGGGUUUCCCCUGAUAGUGCUAAUGGGGCCUGGAAGUUUGGACUGGGCAGAGCUCAACACAGCGUGGCAAUGUGGCUGUGGCUGGACUGCCUCUCUGGAUUCCUCGUCACUCAGCAGGGCAUCUCUGAGAGAAAUGCC has a self-cleavage of 0.38.
For UACGUAGGUGGGUUUCCCCUGAUAGUGCUAAGGGGGCCUGGAAGUUUGGACUGGGCUGAGCUCAACACAGCGUGGCAGAGUGGCUGUGGCUAGACUGCCUCUCUGGAUUCCUCGUCACUCAGCGGGGCAUCUCUGAGGGAAAUGCC, the self-cleavage was 0.14.
For UACGUAGGUGGCUUUCCCCUGAUAGUGCUAAGGGGGCCUGGAAGUUUGGACUGGGCAGAGCUCAACACAGCGUGGCAAAGUGGCUGUGGCUAGACUGCCUCUCUGGAUUCCUCGUCACUCAGCAGGGCAUCACUGAGAGAACUGCC, the self-cleavage was 1.23.
